In PubChem BioAssay AID1963576 (National Center for Advancing Translational Sciences (NCATS), 2024):
In all, about 46,000 compounds went through this assay and about 60 (0.1%) were called active. Inconclusive results (about 3%) are left out. Calls come from the whole dose curve; as a rule, active = well fitted inhibition curve with a large enough effect; inconclusive = small, poorly fitted or top-dose-only effect; inactive = no such curve, though single readings can be large or run the other way. This is one part of the list.

Experiment: Primary qHTS assay for Inhibitors of ovarian cancer metastasis using an organotypic tumor microenvironment (TME) model.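 For activity change, negative = inhibition: plate controls were DMSO wells for no effect and tomatine positive control wells for full effect.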 Note: nearly all actives have a fitted effect of over 65% in size.
Details: SKOV3ip1-GFP adhesion/invasion on 3D omental model, fluorescence; series mostly up to 45.8 µM; activity change, negative = inhibition: at the top concentration
Summary of the method: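 A 3D layer of primary human omental fibroblasts, mesothelial cells, fibronectin and collagen I, grown 48 hr, received SKOV3ip1-GFP cells in serum-free medium plus compounds at 0.36-46 umol/L. After 2 hr RT and 16 hr 37 C, fixed adherent GFP cells were counted; normalized to DMSO and tomatine.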

outcome, inactive:
CCCOc1ccc(CNC(=O)c2cc3ccccn3n2)cc1
CN(C)c1ccc(CNC(=O)c2ccc3nc(CCc4ccccc4)oc3c2)cc1
Cc1ccc(N2C(=O)CSC23C(=O)N(CC(=O)Nc2ccccc2F)c2ccccc23)cc1C (configuration not stated)
CCOc1ccc(NC(=O)c2oc3ccccc3c2NC(=O)c2cc3ccccc3o2)cc1
COc1ccc(N2CCN(CCCNC(=O)c3ccc4nc(N5CCCCC5)sc4c3)CC2)cc1
COc1ccc2c(c1)c1c(c(=O)n(Cc3ccccc3)c(=O)n1Cc1ccc(C)cc1)n2C
CCOc1ccc(NC(=O)CC2C(=O)N(c3cccc(C)c3)C(=O)N2Cc2ccco2)cc1 (configuration not stated)
CCC1CN(C(=O)Nc2ccccc2C(F)(F)F)c2ccccc2S1 (configuration not stated)
Cc1ccc2nc(CN3CCN(C(=O)Nc4cccc(C)c4C)CC3)oc2c1
Cc1ccc(CNC(=O)c2cc(S(=O)(=O)N3CCCCC3)cn2C)cc1
Cc1cc(C)cc(NC(=O)c2cccc(N3CCCS3(=O)=O)c2)c1

Activity change, negative = inhibition, inactive:
CO[C@H]1C[C@@H]2CC[C@@H](C)[C@@](O)(O2)C(=O)C(=O)N2CCCC[C@@H]2C(=O)O[C@H]([C@H](C)C[C@@H]2CC[C@H](OP(C)(C)=O)[C@H](OC)C2)CC(=O)[C@H](C)C=C(C)[C@@H](O)[C@@H](OC)C(=O)[C@H](C)C[C@H](C)C=CC=CC=C1C 12.4%
CC(C)Oc1ccc(C(=O)N2CCCCC2CCN2CCCCC2)cc1 (configuration not stated) -6.33%
CCC(C)c1ccc(OCC(=O)Nc2ccc(-c3nc4ncccc4o3)cc2)cc1 (configuration not stated) -4.15%
CCOC(=O)c1ccc(NC(=O)c2c(NCc3cccc(OC)c3OC)sc3c2CCC3)cc1 -3.02%
CCOC(=O)CSc1nc2cc3c(cc2c(=O)n1CCCCCC(=O)NCc1ccc(OC)cc1)OCO3 -6.91%
Cc1ccc(CNC(=O)c2ccc(CS(=O)(=O)c3ccccc3C)o2)cc1 1.71%
COc1ccccc1NC(=O)Cn1c(=O)n(-c2ccc(C)cc2)c(=O)c2c1cnn2C 11.7%
CCc1cccc(NC(=O)CCNS(=O)(=O)c2ccc3c(c2)CCN3C(C)=O)c1 39.2%
Cc1ccc(/C=C/c2onc(C)c2S(=O)(=O)N2CCC(C(=O)N(CCC(C)C)Cc3ccco3)CC2)cc1 12.5%
CC(C)(C)c1ccc(-c2nnc(-c3ccccc3NC(=O)c3ccc(F)cc3F)o2)cc1 -38.8%
O=C(Nc1ccc(Br)cc1)c1cccc(S(=O)(=O)N2CCc3ccccc32)c1 -3.76%
COc1ccc(-n2nc(C(=O)Nc3cccc(Cl)c3)c3c4ccccc4n(C)c3c2=O)cc1Cl -2.94%
O=C(CSc1oc(-c2ccco2)nc1S(=O)(=O)c1ccc(Cl)cc1)Nc1ccc(F)cc1 2.38%
CCCCCCC1CCC(C(=O)NC(C(=O)O)C(C)C)CC1 (configuration not stated) -1.62%
COc1ccc(-c2nc3ccccc3n3c(-c4ccccc4)c4c(=O)n(C)c(=O)n(C)c4c23)cc1 -23.2%
CC(C)c1ccc(NC(=O)CSC2=Nc3ccccc3C3=NC(CC(=O)NC4CCCCC4)C(=O)N23)cc1 (configuration not stated) -15.3%
CC1CN(C(=O)Nc2ccc(C(=O)NCCc3ccccc3Cl)cc2)c2ccccc2S1 (configuration not stated) -0.0859%
O=C(Nc1ccc(Cl)cc1)C1CCN(S(=O)(=O)c2ccc(Br)s2)CC1 -1.83%
Cc1ccccc1C(=O)Nc1ccc(C(=O)OCc2cc(=O)n3nc(C4CC4)sc3n2)cc1 -0.475%
Cc1onc(-c2ccccc2Cl)c1C(=O)N[C@@H]1C(=O)N2[C@@H]1SC(C)(C)[C@@H]2C(=O)O -0.22%
CC(CNC(=O)CN1C(=O)COc2ccc(S(=O)(=O)N3CCCCC3)cc21)c1ccccc1 (configuration not stated) -0.699%
CCC(C)NC(=O)c1[nH]c2cc(OC)ccc2c1Sc1ccc(C)cc1 (configuration not stated) 3%
CCOC(=O)C1CCN(C(=O)c2cc3ccc4ccc(C)[nH]c4c3n2)CC1 -8.53%
COc1ccc(-c2cc(C(F)(F)F)n3nc(C(=O)Nc4sc5c(c4C#N)CCC(C)C5)cc3n2)cc1OC (configuration not stated) 3.6%
CC(=O)N1c2ccccc2C(=O)C1N1CCN(c2cc(Cl)ccc2C)CC1 (configuration not stated) -2.63%
CC(=O)c1ccc(N2CCN(S(=O)(=O)c3ccc4[nH]c5c(c4c3)CCCCC5)CC2)cc1 2.47%
O=C(CSCc1cc(=O)c2ccccc2[nH]1)Nc1cccc(C(F)(F)F)c1 11.4%
CCOC(=O)c1cccc(NC(=O)c2cnn(-c3ccccc3)c2-n2cccc2)c1 -0.153%
CCS(=O)(=O)c1ncc(N(Cc2cccc(F)c2)Cc2ccco2)c(C(=O)Nc2ccccc2Cl)n1 8.18%
COC(=O)c1scc(-c2ccc(C)cc2)c1S(=O)(=O)Nc1c(C)cc(C)cc1C 0.329%
COc1ccc(NC(=O)CN2C(=O)CC(c3ccco3)Sc3ccccc32)cc1OC (configuration not stated) 12.2%
CCC1CN(C(=O)N2CCC(C(=O)N(C)Cc3ccccc3)CC2)c2ccccc2O1 (configuration not stated) -2.29%
CCOc1ccccc1NC(=O)CCNS(=O)(=O)c1ccc2c(c1)CCN2C(=O)C1CC1 5.14%
Cn1ncc2c(N3CCN(c4ccccc4Cl)CC3)ncnc21 -9.88%
Cc1ccc(OCCCC(=O)Nc2sc3c(c2C(N)=O)CCCC3)cc1 7.84%
CCCCN(C)C(=O)Cn1ncc2c([nH]c3ccc(C)cc32)c1=O 3.5%
Fc1ccccc1N1CCN(c2c3c(nc4nncn24)CCC3)CC1 0.82%
CCC(Sc1nnc(-c2ccc(OC)cc2)c(-c2ccc(OC)cc2)n1)C(=O)Nc1cccc(OC)c1 (configuration not stated) -1.59%
COc1ccc(NC(=O)CN(c2ccc(C)cc2)S(=O)(=O)c2cccs2)cc1OC -2.24%
Cc1ccc(/C=C/c2onc(C)c2S(=O)(=O)N2CCC(C(=O)NCc3ccc(N(C)C)cc3)CC2)cc1 -1.84%
CCCCS(=O)CC(O)CSc1nc(-c2ccc(OC)cc2)cc(-c2ccccc2)c1C#N (configuration not stated) 2.08%
COc1ccccc1NC(=O)c1sc2nc(-c3cc4ccccc4oc3=O)[nH]c(=O)c2c1C 2.04%
COc1ccc(Cn2ccc3ccc(C(=O)NO)cc32)cc1 -7.36%
CN(Cc1ccccc1)C(=O)C1CCN(Cc2cc3ccccc3n2Cc2ccccc2)CC1 7.75%
C#Cc1cccc(Nc2ncnc3cc(OCCOC)c(OCCOC)cc23)c1 -21.1%
Cc1cccc(NC(=O)c2c(NC(=O)c3ccco3)sc3c2CCC(C(C)(C)C)C3)c1 (configuration not stated) 18%
